The other results are listed elsewhere or left out. Further columns of the screen follow, without active or inactive calls. Compounds called inactive in the main read-out are mostly missing here. The note in brackets gives the kind of curve behind each potency; many fits are weak.

Results on 16 compounds are retold here after PubChem BioAssay (NCATS).

This test can be described thus: qHTS Assay for Lipid Storage Modulators (AID 1519). Conditions: Drosophila S3 cells, BODIPY lipid droplet/cell ratio, laser cytometry, cells loaded with oleic acid. The procedure, abridged: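 Cells seeded at 5,000 per well were treated with compounds over a concentration series and loaded with oleic acid (400 uM, as added). Lipid droplet fluorescence (488 nm excitation, 500-530 nm channel) was read by laser-scanning cytometry and normalized to 20 uM Triacsin C.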

Setting [1] is: measured here: cell count channel max response.
[2] abbreviates: measured here: lipid channel max response.
Tags describe the fitted curve by direction and shape.

With `Cc1ccc2c(c1)c1c3n2CCN[C@H]3CCC1`, the max response under setting [1] was 66.3% and the max response under setting [2] amounted to 82%. The matching figures for `C[N+](C)(C)CCCCCCCCCC[N+](C)(C)C`: 44.8% and 44.5%. The AC50 is the midpoint of the concentration-response curve, whichever way the signal moves. As for `COc1ccc(Oc2ncc3nc(-c4ccc(Cl)cc4)c(=O)n(C[C@H]4CCCO4)c3n2)cc1`, the concentration at half-maximal activity (AC50) (measured here: lipid (BODIPY) channel AC50) was 15.8 µM [falling, partial curve].

Take `COc1cc2c(CCNC(C)=O)c[nH]c2cc1O`: the max response runs as follows: under setting [1], 48.4%; under setting [2], 48.2%. As to `CC1=C(\C=C/C(C)=C/C=C\C(C)=C\C(=O)O)C(C)(C)CCC1`, the max response under setting [1] was found to be 75.5% and the max response under setting [2] is 89.4%.

As to `NCCC(=O)NCCc1cnc[nH]1`, the max response runs as follows: under setting [1], 44.2%; under setting [2], 46.1%. Regarding `C=Cc1c(C)c2cc3[nH]c(cc4nc(cc5nc(cc1[nH]2)C(C)=C5CCC(=O)O)C(CCC(=O)O)=C4C)c(C)c3C=C`, the max response is, setting by setting: under setting [1], 56.5%; under setting [2], 60%. With `O[Si](CCCN1CCCCC1)(c1ccc(F)cc1)C1CCCCC1` (stereo unspecified), the max response under setting [1] was determined as 51.7% and the max response under setting [2] turned out to be 51.7%. In the case of `CC(C)NCC(O)COc1cccc2[nH]ccc12` (stereo unspecified), the max response reads like this: under setting [1], 56.5%; under setting [2], 59.6%. The matching figures for `Cn1cc(C(F)(F)F)nc1-c1ccc(OCC(O)CNCCOc2ccc(O)c(C(N)=O)c2)cc1` (stereo unspecified): 48.8% and 54%. The matching figures for `Fc1ccc(C(c2ccc(F)cc2)N2CCN(C/C=C\c3ccccc3)CC2)cc1`: 55.8% and 62.8%.

Regarding `C[N+](C)(CCCCCC[N+](C)(C)CCCN1C(=O)c2cccc3cccc(c23)C1=O)CCCN1C(=O)c2cccc3cccc(c23)C1=O`, the max response reads like this: under setting [1], 53%; under setting [2], 51.1%. The matching figures for `N[C@H](CO)C(=O)O`: 36.5% and 41.6%.

In the case of `O=C(O)C1=CCNCC1`, the max response by setting is: under setting [1], 43.4%; under setting [2], 35.2%. The corresponding values for `Nn1nnc2ccccc21` are 82.8% and 85.2%.

As for `O=C1N=C(O)CN1/N=C\c1ccc(-c2ccc([N+](=O)[O-])cc2)o1`, the max response runs as follows: under setting [1], 67.3%; under setting [2], 86.2%.
